Test results published in the supplement of paper PMC12645437, “Orthogonal IMiD-Degron Pairs Induce Selective Protein Degradation in Cells” (ACS Chemical Biology, 2025).
Some of the results follow.

These sequences were tested against no compound (DMSO) (assay: log2 fold change of degron read counts, EGFP-low vs EGFP+ sorted cells; higher = lower degron-EGFP level without compound (poor expression or instability)). Details: compound: DMSO control; 18 h.
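Also: jurkat cells carrying a lentiviral library of mutant zinc finger degrons fused to EGFP plus mCherry, mCherry+ cells FACS sorted, degron abundance counted by next-generation sequencing.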

Sequence	log2 fold change of degron read counts
FFCNQCGHNFTQKGNLLRHIKL	0.448
FRCPQCGAMFTQKGNLLRHIKL	-0.373
FACNQCGHSFTQKGNLLRHIKL	-0.865
FLCPICGRYFTQKGNLLRHIKL	0.501
FACDICGAHFTQKGNLLRHIKL	-1.88
FWCNQCGHKFTQKGNLLRHIKL	0.692
FRCSVCGHLFTQKGNLLRHIKL	-0.295
FTCPICGHGFTQKGNLLRHIKL	-0.407
FSCEICGRKFTQKGNLLRHIKL	-1.78
FFCPICGRAFTQKGNLLRHIKL	-0.957
FGCEQCGAIFTQKGNLLRHIKL	-0.777
FACNICGAHFTQKGNLLRHIKL	-0.107
FWCNICGAPFTQKGNLLRHIKL	0.95
FQCNQCGRHFTQKGNLLRHIKL	-0.376
FHCDVCGAYFTQKGNLLRHIKL	-0.888
FSCNICGAAFTQKGNLLRHIKL	-0.172
FSCDICGAPFTQKGNLLRHIKL	-0.165
FCCNQCGRHFTQKGNLLRHIKL	0.101
FDCEICGRQFTQKGNLLRHIKL	-1.82
FACNQCGHPFTQKGNLLRHIKL	0.257
FECNVCGAYFTQKGNLLRHIKL	-0.381
FLCNQCGACFTQKGNLLRHIKL	-0.477
FICDICGAAFTQKGNLLRHIKL	-1.74
FSCSVCGHPFTQKGNLLRHIKL	-0.0974
FLCNICGAHFTQKGNLLRHIKL	-0.0712

Sequence	log2 fold change of degron read counts
FACSVCGHFFTQKGNLLRHIKL	0.412
FHCNQCGAAFTQKGNLLRHIKL	-0.678
FNCNQCGRNFTQKGNLLRHIKL	-0.221
FLCEICGRTFTQKGNLLRHIKL	-1.8
FHCPICGHPFTQKGNLLRHIKL	-0.15
LECPICGFYCTQKGNLLRHIKL	0.678
FACPQCGAWFTQKGNLLRHIKL	0.142
FLCPVCGAWFTQKGNLLRHIKL	1.68
FDCNQCGHIFTQKGNLLRHIKL	0.909
FNCEQCGAAFTQKGNLLRHIKL	-0.803
FLCPVCGAHFTQKGNLLRHIKL	-0.0365
FRCNQCGHYFTQKGNLLRHIKL	0.218
FECEVCGASFTQKGNLLRHIKL	-1.99
LECPICGFNCTQKGNLLRHIKL	0.338
FMCEICGRDFTQKGNLLRHIKL	-1.6
FACPVCGARFTQKGNLLRHIKL	-0.0127
FHCEICGHSFTQKGNLLRHIKL	-1.35
FRCPVCGAWFTQKGNLLRHIKL	1.09
LRCPICGFTCTQKGNLLRHIKL	0.168
LKCPICGFGCTQKGNLLRHIKL	0.761
FKCNQCGATFTQKGNLLRHIKL	-0.679
FQCDQCGAHFTQKGNLLRHIKL	-1.78
FYCNQCGRMFTQKGNLLRHIKL	0.132
LHCNQCGFPCTQKGNLLRHIKL	0.453
FLCSVCGHDFTQKGNLLRHIKL	-0.743
